Data from publication PMC9671898.
Results are given in words; binding and its absence hold for the method and conditions named. In cells and extracts the contact can be indirect. Some results given as binding are weak or reduced against the parent protein; the word gives no strength. Sequences can lack the tags named with a protein.

Legend:
[1] = molecular target: T1, cCFP-U2AF65B (Arabidopsis thaliana) (UniProt Q8L716); test: split reporter; BiFC: fusions to CFP(155-238) and YFP(1-172) co-infiltrated into N. benthamiana leaves; plants left under long days, white light, 3 days
T1 sequence: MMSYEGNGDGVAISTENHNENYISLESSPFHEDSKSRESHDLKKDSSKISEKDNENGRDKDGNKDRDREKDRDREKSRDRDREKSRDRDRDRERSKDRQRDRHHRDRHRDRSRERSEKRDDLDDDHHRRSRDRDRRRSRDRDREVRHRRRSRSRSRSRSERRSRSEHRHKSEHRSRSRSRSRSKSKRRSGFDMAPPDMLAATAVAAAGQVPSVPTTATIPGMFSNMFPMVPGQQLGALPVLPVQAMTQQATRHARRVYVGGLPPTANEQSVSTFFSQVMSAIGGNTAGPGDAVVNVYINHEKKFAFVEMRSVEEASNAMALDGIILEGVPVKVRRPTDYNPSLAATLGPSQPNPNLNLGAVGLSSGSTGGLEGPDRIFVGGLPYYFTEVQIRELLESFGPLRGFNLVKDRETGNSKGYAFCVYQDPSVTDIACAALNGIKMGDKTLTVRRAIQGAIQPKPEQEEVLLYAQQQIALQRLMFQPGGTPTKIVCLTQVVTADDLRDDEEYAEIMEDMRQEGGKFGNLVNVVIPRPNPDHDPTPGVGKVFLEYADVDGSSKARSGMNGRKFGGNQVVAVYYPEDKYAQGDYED

[2] = molecular target: T2, cCFP-U2AF65A (Arabidopsis thaliana) (UniProt O23212); test: as above
T2 sequence: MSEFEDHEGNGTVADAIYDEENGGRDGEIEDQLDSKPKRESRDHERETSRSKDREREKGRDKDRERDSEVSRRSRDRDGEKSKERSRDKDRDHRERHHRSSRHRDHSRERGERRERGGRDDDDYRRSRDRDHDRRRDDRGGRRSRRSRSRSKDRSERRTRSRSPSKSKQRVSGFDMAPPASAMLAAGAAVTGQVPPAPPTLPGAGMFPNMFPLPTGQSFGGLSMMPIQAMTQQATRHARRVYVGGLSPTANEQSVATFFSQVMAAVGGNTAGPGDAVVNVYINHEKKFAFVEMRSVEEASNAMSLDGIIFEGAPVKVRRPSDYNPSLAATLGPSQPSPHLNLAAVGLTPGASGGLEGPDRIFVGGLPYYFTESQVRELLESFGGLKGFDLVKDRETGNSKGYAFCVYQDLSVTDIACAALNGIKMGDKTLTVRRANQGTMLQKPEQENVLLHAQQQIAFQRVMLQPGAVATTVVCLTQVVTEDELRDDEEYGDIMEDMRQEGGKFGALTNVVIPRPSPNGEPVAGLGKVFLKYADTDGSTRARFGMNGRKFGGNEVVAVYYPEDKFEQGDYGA

B1: CIS1-nYFP (protein, UniProt Q94C11 1-443)
chain: MDKGAPPSIFVNDGSFMERFRQLQQEKDKDKDKVVQVEDSKPVKIISNPKPAANKISIGLKPNDAQKKGGKLAFSLKQKSKLLAPPVKLGTEEDEDDEDVKHEQGFGSVKRQKLEQRDTPVKSAKVSDVAPPPPSDPTVKKVADKLASFVAKHGRPFEHITRQKNPGDTPFKFLFDENCADYKYYVFRLAEEEKLISQTKDSGVLHSGDAGSRTSTAAIPLQKPAYQQTGYQIPASALYDTPVEPGASSRSAQASITRPSDSDSFSGPRGADPLSMMEFYMKKAAQEEKMRRPRQSKDEMPPPASLQGPSETSSTDPGKRGHHMGDYIPLEELDKFLSKCNDAAAQKATKEAAEKAKIQADNVGHKLLSKMGWKEGEGIGSSRKGMADPIMAGDVKTNNLGVGASAPGEVKPEDDIYEQYKKRMMLGYKHRPNPLGNPRKAYY
[1]
  binding: no binding
[2]
  binding: binds
